Hit rate of the full screen: of about 350,000 compounds, about 31,000 (8.9%) were called active. This list was built around the results that the source calls inconclusive (neither active nor inactive); the mix of calls is not that of the screen. Calls follow the shape of the dose curve; as a rule, active = well fitted inhibition curve with a large enough effect; inconclusive = small, poorly fitted or top-dose-only effect; inactive = no such curve, though single readings can be large or run the other way. A potency beside an inconclusive call is a rough fit, not a confirmed value.
Target: Histone-lysine N-methyltransferase EHMT2 (Homo sapiens) (UniProt Q96KQ7)
Chain of UniProt Q96KQ7 (Q96KQ7 whole entry, looked up): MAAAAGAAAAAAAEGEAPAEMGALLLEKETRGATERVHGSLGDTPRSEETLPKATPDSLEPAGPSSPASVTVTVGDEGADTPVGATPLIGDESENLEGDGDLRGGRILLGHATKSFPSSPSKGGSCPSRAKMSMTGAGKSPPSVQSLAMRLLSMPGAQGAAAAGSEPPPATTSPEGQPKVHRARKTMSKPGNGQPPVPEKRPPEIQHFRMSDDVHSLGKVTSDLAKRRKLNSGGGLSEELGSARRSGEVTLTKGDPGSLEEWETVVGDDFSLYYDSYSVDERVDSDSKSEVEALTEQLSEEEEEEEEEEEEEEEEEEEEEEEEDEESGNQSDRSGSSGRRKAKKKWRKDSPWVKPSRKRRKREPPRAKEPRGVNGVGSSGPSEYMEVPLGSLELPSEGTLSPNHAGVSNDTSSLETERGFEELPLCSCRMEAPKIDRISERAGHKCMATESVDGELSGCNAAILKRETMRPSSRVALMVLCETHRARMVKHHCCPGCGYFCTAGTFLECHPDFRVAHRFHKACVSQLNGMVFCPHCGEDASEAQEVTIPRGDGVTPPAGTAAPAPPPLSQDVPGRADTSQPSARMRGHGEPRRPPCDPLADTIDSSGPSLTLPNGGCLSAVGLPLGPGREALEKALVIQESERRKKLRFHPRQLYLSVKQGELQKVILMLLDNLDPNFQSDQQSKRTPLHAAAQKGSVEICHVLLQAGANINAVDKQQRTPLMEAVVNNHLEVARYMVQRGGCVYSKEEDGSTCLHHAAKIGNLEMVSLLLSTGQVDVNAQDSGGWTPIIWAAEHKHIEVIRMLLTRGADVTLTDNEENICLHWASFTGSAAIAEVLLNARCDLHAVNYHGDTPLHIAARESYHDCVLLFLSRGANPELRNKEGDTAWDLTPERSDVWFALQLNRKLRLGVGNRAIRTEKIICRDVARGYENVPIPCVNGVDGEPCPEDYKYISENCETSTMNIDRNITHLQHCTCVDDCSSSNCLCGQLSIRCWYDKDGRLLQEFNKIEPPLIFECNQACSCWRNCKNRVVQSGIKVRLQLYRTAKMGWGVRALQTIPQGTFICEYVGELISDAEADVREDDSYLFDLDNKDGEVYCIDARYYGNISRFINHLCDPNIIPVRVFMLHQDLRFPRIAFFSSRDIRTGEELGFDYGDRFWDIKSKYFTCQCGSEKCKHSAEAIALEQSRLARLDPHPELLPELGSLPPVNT
Experiment: qHTS Assay for Inhibitors of Histone Lysine Methyltransferase G9a; also: nearly all actives have a fitted effect of over 75% in size
Settings: G9a H3K9 monomethylation, AlphaScreen, 2 h; activity, negative = inhibition: at 59 µM (top of the series) unless noted
Method in brief: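 Chemiluminescent proximity detection of H3K9 monomethylation, read after 10 min bead incubation in the dark. Reaction: 20 nM G9a, 500 nM biotin-H3K9 peptide, 20 uM SAM cofactor, 2 h, room temperature, following 15 min enzyme-compound preincubation.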
% is scaled to controls: 0 for no effect and ±100 for the full control effect; potency is read from the fitted curve at half-maximal effect; tags tell the direction and shape of the fitted curve.

Row | Structure (SMILES) | activity, negative = inhibition | Potency
1 | COc1ccc(Cl)cc1N1C(=NC(=O)C2CCCO2)SC2CS(=O)(=O)CC21 (stereo not drawn) | inactive: 13.6% [at 102 µM] | –
2 | COc1ccc(NC(=O)c2cc(-c3ccco3)nc3ccccc23)cn1 | inactive: 10.5% [at 0.501 µM] | –
3 | CCn1c(SCC(=O)N(Cc2ccccc2)C2CCS(=O)(=O)C2)nc2ccccc2c1=O (stereo not drawn) | – | inconclusive: 89.1 µM [inhibitor, single point]
4 | C#CCN1C(=O)C(O)(CC(=O)/C=C/C=C/c2ccccc2)c2ccccc21 (stereo not drawn) | – | inconclusive: 35.5 µM [inhibitor, partial curve, poor fit]
5 | Cn1c(SCCCC(=O)c2ccc(Br)cc2)nnc1-c1ccncc1 | – | inconclusive: 22.4 µM [inhibitor, single point]
6 | O=C(C1CCC1)N1CCN(S(=O)(=O)c2ccccc2)CC1 | inactive: -32% [at 102 µM] | –
7 | Cc1ccc(CCNC(=O)c2cn(C)c3ccc(S(=O)(=O)N4CCCCC4)cc3c2=O)cc1 | inactive: 5.83% | –
8 | CCCS(=O)(=O)N1CCCC(C(=O)NCCCOC)C1 (stereo not drawn) | inactive: 5.18% | –
9 | CC1NC(=S)N(Cc2ccccc2)C1=O (stereo not drawn) | inactive: -1.33% [at 102 µM] | –
10 | CC(C)CC(=O)Nc1nc(=S)ss1 | – | active: 1.58 µM
11 | Cc1nc2cc3c(cc2s1)OCO3 | inactive: -0.0764% [at 102 µM] | –
12 | CC(=O)Nc1cccc(Oc2nc(-c3ccccn3)nc3ccccc23)c1 | inconclusive: -71% [inhibitor] [at 12.7 µM] | –
13 | CCOC(=O)CSc1nnnn1-c1cccc2ccccc12 | – | active: 10 µM
14 | CCN(CC)CCOc1nc(C)nc2c1oc1ccccc12 | – | active: 50.1 µM
15 | NC(=O)c1ccc(NC(=O)CS(=O)(=O)c2cn(CC(=O)N3CCCC3)c3ccccc23)cc1 | – | active: 25.1 µM
16 | Cc1sc2c(c1C)C(=O)NC(c1cccc(O)c1)N2 (stereo not drawn) | – | active: 44.7 µM
17 | CCCCN(C(=O)CSCc1c(C)noc1C)c1c(N)n(CCC)c(=O)[nH]c1=O | – | inconclusive: 79.4 µM [inhibitor, single point]
18 | Cc1cccn2c(=O)c(C=O)c(Nc3ccccc3)nc12 | – | active: 44.7 µM
19 | COc1ccc(N=Cc2ccc(-c3ccccc3)o2)cc1 | – | inconclusive: 89.1 µM [inhibitor, partial curve, poor fit]
20 | CN(CC(=O)Nc1ccc(Cl)cc1)C(=O)c1ccc(S(=O)(=O)Nc2ccccc2)cc1 | inactive: -30% [at 102 µM] | –
21 | Nc1nc(SCC(=O)N2CCCC2)[nH]c(=O)c1-c1ccccc1 | inactive: -1.18% [at 12.7 µM] | –
22 | CC1(CC(=O)N/N=C/c2ccc(-c3ccc(Cl)cc3)o2)OCCO1 | – | inconclusive: 89.1 µM [inhibitor, single point]
23 | CCOc1ccccc1NC(=O)Cn1cnc2sc(C)c(S(=O)(=O)N3CCC(C)CC3)c2c1=O | inactive: 1.53% | –
